Test results: PMC4336329 (PLoS ONE, 2015)
The campaign covered roughly 310,000 compounds. About 14,000 (4.5%) showed an effect of 50% or more. The effect is printed as a negative number. Some of the results follow.

molecular target: human ether-à-go-go-related gene (hERG) potassium channel (human, UniProt Q12809); assay: primary screen, population patch clamp on CHO cells stably expressing hERG
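Further: peak tail current of the secondary pulse compared with the same well before compound.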

Sequence of human ether-à-go-go-related gene (hERG) potassium channel (Q12809 whole entry, looked up): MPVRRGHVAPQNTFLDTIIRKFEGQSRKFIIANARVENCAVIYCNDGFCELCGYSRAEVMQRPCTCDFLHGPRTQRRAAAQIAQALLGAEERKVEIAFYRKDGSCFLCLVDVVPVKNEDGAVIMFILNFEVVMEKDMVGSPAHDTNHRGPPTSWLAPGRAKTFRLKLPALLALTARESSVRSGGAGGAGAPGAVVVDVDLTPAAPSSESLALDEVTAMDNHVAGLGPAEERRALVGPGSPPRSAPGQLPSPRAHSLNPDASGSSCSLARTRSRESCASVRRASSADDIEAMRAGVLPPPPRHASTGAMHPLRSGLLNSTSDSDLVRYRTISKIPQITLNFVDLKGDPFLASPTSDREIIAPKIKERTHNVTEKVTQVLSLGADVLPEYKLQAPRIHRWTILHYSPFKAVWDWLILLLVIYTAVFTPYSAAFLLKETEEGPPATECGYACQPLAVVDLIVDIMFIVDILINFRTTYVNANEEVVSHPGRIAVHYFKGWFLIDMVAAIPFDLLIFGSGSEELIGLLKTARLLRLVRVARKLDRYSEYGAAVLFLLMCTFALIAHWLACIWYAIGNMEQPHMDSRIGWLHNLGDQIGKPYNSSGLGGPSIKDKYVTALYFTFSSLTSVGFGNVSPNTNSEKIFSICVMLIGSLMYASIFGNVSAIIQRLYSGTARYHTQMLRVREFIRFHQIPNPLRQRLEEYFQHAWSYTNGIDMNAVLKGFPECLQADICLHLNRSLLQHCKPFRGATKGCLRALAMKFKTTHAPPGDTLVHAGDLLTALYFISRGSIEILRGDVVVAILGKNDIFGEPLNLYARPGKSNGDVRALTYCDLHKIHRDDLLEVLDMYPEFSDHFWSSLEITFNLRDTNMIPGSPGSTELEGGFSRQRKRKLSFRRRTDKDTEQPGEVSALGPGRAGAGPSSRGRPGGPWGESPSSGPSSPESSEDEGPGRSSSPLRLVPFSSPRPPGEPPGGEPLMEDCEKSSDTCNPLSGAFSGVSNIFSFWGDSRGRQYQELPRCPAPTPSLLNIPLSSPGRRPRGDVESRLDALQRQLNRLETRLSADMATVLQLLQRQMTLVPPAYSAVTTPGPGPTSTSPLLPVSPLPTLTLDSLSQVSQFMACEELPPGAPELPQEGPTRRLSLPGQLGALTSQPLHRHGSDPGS

Row | Structure (SMILES) | hERG current change (%, negative = inhibition) at 10uM [%]
1 | CCOc1ccc(CNC(=O)CCn2c(=O)oc3ccccc32)cc1OC | -7.47
2 | O=C(CSc1nnc(-c2ccc(F)cc2)o1)Nc1ccc(S(=O)(=O)N2CCCC2)cc1 | -2.73
3 | CCOc1ccc(NCc2nnc(SCC(=O)Nc3cc(C)on3)n2-c2ccc(OC)cc2)cc1 | -4.02
4 | CCn1c(=O)c2c(nc3n2CCCN3Cc2ccccc2)n(C)c1=O | -18.2
5 | CN1CCN(c2c(F)cc([N+](=O)[O-])c(N)c2Br)CC1 | -45.3
6 | COc1ccc2c(c1OC)C(=O)N1N=C(c3ccc(O)cc3)CC21 (centres unmarked) | -1.59
7 | CC1CCN(c2c(NCC3CCC(C(=O)NCCc4ccccc4)CC3)c(=O)c2=O)CC1 (centres unmarked) | 1.51
8 | CCc1ccc(C(C)NC(=O)c2ccncc2)cc1 (centres unmarked) | 3.72
9 | Cc1ccc(N2C(=O)C3CC(c4ccccc4)=C4C5C=CC(C6C(=O)N(c7ccc(C)cc7)C(=O)C56)C4C3C2=O)cc1 (centres unmarked) | -73.6
10 | Cc1cc(C)c(Cc2c(C)nc3c(C(=O)NCc4ccco4)cnn3c2C)c(C)c1 | 9.22
11 | Cc1cc(C)c(C2=CSC3=NS(=O)(=O)CCN23)c(C)c1 | 3.29
12 | O=C(O)c1ccc(N2CCCCS2(=O)=O)cc1 | 23
13 | COCC(C)n1c(C)cc(C(=O)CN2c3cccc4cccc(c34)S2(=O)=O)c1C (centres unmarked) | 7.03
14 | CSc1nc2[nH]c3c(c2c2nnnn12)CCCC3 | 9.92
15 | COc1ccc(C(=O)N/N=C/c2ccc(SC)cc2)cc1 | 3.02
16 | COc1ccc(C(CC(=O)O)NC(=O)c2ccccc2[N+](=O)[O-])cc1 (centres unmarked) | 17.9
17 | COCCN(C(=O)Cc1cccs1)c1nnc(-c2ccncc2)s1 | -4.09
18 | Cc1cccn2c(CN(C)CC3CCCCO3)c(C(=O)N3CCCCC3)nc12 (centres unmarked) | 20.9
19 | Cc1nc(=O)c(-c2ccccc2)c(C)n1CC1CCCO1 (centres unmarked) | 3.28

Row | Structure (SMILES) | hERG current change (%, negative = inhibition) at 10uM [%]
20 | CCOC(=O)c1ccc(NC(=O)C(=O)NCc2ccccn2)cc1 | 8.91
21 | CC(=O)C(Sc1ccc2nnc(-c3ccc(C)cc3)n2n1)C(C)=O | -1.98
22 | CCCCNC(=S)N(CCCN(C)C)Cc1cc2cc3c(cc2[nH]c1=O)OCO3 | -20.2
23 | NC(=O)CC(NC(=O)Cc1cccc2ccccc12)c1ccc(N2CCN(c3ccc(F)cc3)CC2)c([N+](=O)[O-])c1 (centres unmarked) | -6.46
24 | COc1ccc(-n2c(C)cc(/C=C3/SC(=S)N(C)C3=O)c2C)cc1 | 20.7
25 | Nc1cc(C(=O)OCC(=O)NNC(=O)c2cccs2)ccc1Cl | -1.27
26 | COc1ccc(OC)c(Nc2cc(-c3ccccc3)nc(N)n2)c1 | -55.9
27 | CC1(C(=O)O)C=CC2(CCCCC2)N1C(=O)c1ccccc1 (centres unmarked) | 7.33
28 | Cc1ccc(-c2nnc(N)o2)cc1 | 9.43
29 | CCC(=O)Nc1cc(=O)[nH]c2nc(-c3ccc(Cl)cc3)nn12 | 27.2
30 | COc1ccc(-c2c(C#Cc3ccsc3)c3ccccc3n2C)cc1 | -6.31
31 | O=C(Nc1nccs1)C1CC(=O)N(CCc2ccc(F)cc2)C1 (centres unmarked) | -0.348
32 | CN1CCN(C(=O)COc2ccc3ccccc3c2)CC1 | -3.47
33 | O=C(NCCOc1ccccc1)c1ccccc1SCC(=O)N1CCCC1 | 14.9
34 | CCOC(=O)C(=O)c1cn(C2OCC(OC(C)=O)C(OC(C)=O)C2OC(C)=O)c2ccccc12 (centres unmarked) | 10.3
35 | COc1ccc(CN2C(=O)c3cccnc3C2=O)cc1S(=O)(=O)N(C)c1ccc(C)cc1 | 16.1
36 | O=C(NC1CCCC1)C1CC(=O)N(C2CCCCCCC2)C1 (centres unmarked) | 0.564
37 | Fc1cccc(/C=N/N=C/c2cccc(F)c2)c1.O | 52
38 | CSc1ccc(CNCc2ccc3c(c2)OCO3)cc1.O=C(O)C(=O)O | -46.4

Row | Structure (SMILES) | hERG current change (%, negative = inhibition) at 10uM [%]
39 | CCOc1ccccc1C(=O)N(Cc1ccc(C)o1)C1CCS(=O)(=O)C1 (centres unmarked) | 3.34
40 | Cc1c(NC(=O)C2CCCN2S(=O)(=O)c2ccccc2)c(=O)n(-c2ccccc2)n1C (centres unmarked) | 13.8
41 | CC12CC3(C)CC(C)(C1)CC(C(=O)Nc1nn[nH]n1)(C2)C3 | 2.11
42 | CN(C)c1nc(C(=O)Nc2ccccc2)nc(N(C)C)n1 | 8.15
43 | CCOc1ccc(/C(O)=C2/C(=O)C(=O)N(c3ccccn3)C2c2ccc(F)cc2)c(C)c1 (centres unmarked) | 11.8
44 | O=C(N/N=C/c1ccco1)c1cc(-c2cccc(Br)c2)nc2ccccc12 | -3.76
45 | Cc1oc(C(C)(C)C)cc1C(=O)N1CCN(C(c2ccccc2)c2ccccc2)CC1 | 5.22
46 | COc1ccc(-c2csc(NC(=O)c3ccccc3NS(=O)(=O)c3ccc(C)cc3)n2)cc1 | -6.26
47 | CCN(CC)c1ccc(NC(=O)COc2ccc(C#N)cc2)cc1S(=O)(=O)Nc1ccc(OC)cc1 | 9.73
48 | COc1ccc(-c2nnc(SCc3cccc(C#N)c3)o2)cc1 | -0.873
49 | COc1cccc(CN2CCN(C3CSCCSC3)CC2CCO)c1 (centres unmarked) | -13
50 | CC(C)(C)NC(=O)NCc1cccnc1 | 16.6
51 | CCN(CC)C(=O)CSc1nnc2nnc3cc(OC)ccc3n12 | 2.88
52 | COc1cc(/C=N/NC(=O)Cc2csc(N3CCOCC3)n2)cc(OC)c1O | 30.1
53 | Cc1ccc(CNS(=O)(=O)c2cccc3nsnc23)cc1 | -24.3
54 | Clc1nc2ccccc2nc1-c1ccccc1 | 20
55 | COc1cc(C2c3sc(=O)[nH]c3SC3C4CCC(C4)C23)ccc1O (centres unmarked) | -3.55
56 | CC(C)(C)OC(=O)N[C@@H](Cc1ccccc1)c1nnc(SCC(=O)c2ccc(Cl)cc2)o1 | -4.25
